Read counts are not given, so values of variants with three or more changes are uncertain.
B1: CPEB3 Ribozyme (parent)
chain: UAACAGGGGGCCACAGCAGAAGCGUUCACGUCGCAGCCCCUGUCAGAUUCUGGUGAAUCUGCGAAUUCUGCUGUAUAUCUC

Variants of: B1
Assay: self-cleavage, relative activity (ratio to wild type); higher = more cleavage; in vitro, sequencing
Summary of the method: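 Relative activity compares each variant's cleaved/total read fraction with that of the unmutated ribozyme. To get these fractions, barcoded CPEB3 ribozyme libraries from rounds of error-prone PCR were transcribed with T7 RNA polymerase for 5 hours at 37°C and then given 15 min of DNase I treatment before EDTA was added. The RNAs were reverse transcribed with template switching and sequenced on Illumina, and DNA sequencing linked barcodes to variants. A minimum of 5 reads applied, and three batches were averaged.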

Row | Variant | self-cleavage
1 | A21G U49C U67A U80C | 0.4
2 | A21G U49C U69C | 0.08
3 | A21G U49C U69C U76A | 0.09
4 | A21G U49C U72C | 0.1
5 | A21G U49C U76A | 0.27
6 | A21G U49C U78G | 0.12
7 | A21G U51A A57U G73A | 0.74
8 | A21G U51A A64U | 0.16
9 | A21G U51A C59A | 0.13
10 | A21G U51A C68U A75G | 0.28
11 | A21G U51A U54C A75U U78C | 0.8
12 | A21G U51A U58C U60C A65C | 0.15
13 | A21G U51A U69C | 0.16
14 | A21G U51C A57G A65G | 0.18
15 | A21G U51C A57G U58C | 0.22
16 | A21G U51C G63U | 0.62
17 | A21G U51C U72C U80A | 0.21
18 | A21G U51C U72G | 0.26
19 | A21G U51G A65G | 0.18
20 | A21G U51G G55U | 0.42
21 | A21G U54A A65G U72G | 0.22
22 | A21G U54A G61A | 0.23
23 | A21G U54A U58C A64G | 0.15
24 | A21G U54A U58C A77U | 0.18

Row | Variant | self-cleavage
25 | A21G U54A U58C U74G | 0.19
26 | A21G U54A U66C | 1.16
27 | A21G U54A U69G | 0.37
28 | A21G U54A U74G | 0.82
29 | A21G U54C A57U | 0.32
30 | A21G U54C C59U U60C | 0.14
31 | A21G U54G A56G U72G | 0.23
32 | A21G U58A A64G U72A | 0.33
33 | A21G U58C U60C | 0.21
34 | A21G U58C U67C | 0.28
35 | A21G U60A A77U | 0.18
36 | A21G U60A U67C | 0.22
37 | A21G U60A U67C C68G | 0.18
38 | A21G U60A U69A U78C | 0.08
39 | A21G U60C A65G | 0.17
40 | A21G U60C A75G | 0.12
41 | A21G U60C U67A A77U U78C | 0.11
42 | A21G U60C U72A | 0.22
43 | A21G U60C U74C | 0.29
44 | A21G U66C A77C | 1.04
45 | A21G U66C U67C | 0.18
46 | A21G U66C U72A U80C | 1.19
47 | A21G U67A C68A U80A | 0.12
48 | A21G U67C C71A U74C | 0.08

Row | Variant | self-cleavage
49 | A21G U67C G73A | 0.15
50 | A21G U67C U72C | 0.3
51 | A21G U67C U76A | 0.15
52 | A21G U67C U76C | 0.11
53 | A21G U69A A75G | 0.09
54 | A21G U69C A75G | 0.3
55 | A21G U69C C71A | 0.11
56 | A21G U69C U72A | 0.16
57 | A21G U69C U78C | 0.23
58 | A21G U72A U78C | 0.25
59 | A21G U72A U80C | 0.7
60 | A21G U72C A75G | 0.3
61 | A21G U72C U80C | 0.98
62 | A21G U72G U74C | 0.45
63 | A21G U74A U80C | 0.88
64 | A21G U76C A77G | 0.64
65 | A21G U76C C81U | 0.88
66 | A21G U76C U80C | 0.86
67 | A21U A28C C68G U72C | 0.05
68 | A21U A28G A47G | 0.16
69 | A21U A28G A47U | 0.14
70 | A21U A28G A64G A65G | 0.04
71 | A21U A28G G53A U58A | 0.1
72 | A21U A28G G61A | 0.29

Row | Variant | self-cleavage
73 | A21U A28G U31A U41C U49C U60C G73A | 0.07
74 | A21U A28G U41A C59A | 0.09
75 | A21U A28G U49A A64G U66A U67G | 0.03
76 | A21U A28U A47G U76C | 0.23
77 | A21U A28U A56G A64G U80A | 0.08
78 | A21U A28U U41G U43C A47G U78C | 0.21
79 | A21U A35G A47G U60C | 0.39
80 | A21U A35G A56G U78C | 1.18
81 | A21U A35G A64U | 0.35
82 | A21U A35G U48C C50U G61A | 0.19
83 | A21U A35G U60A | 0.64
84 | A21U A35G U74C | 0.68
85 | A21U A35U A47G | 0.24
86 | A21U A35U G52A U54C U60C U69C A77G | 0.09
87 | A21U A35U U41A A57G | 0.35
88 | A21U A35U U78C | 0.09
89 | A21U A45G U51C U78A | 0.22
90 | A21U A45G U67C U69A | 0.05
91 | A21U A45G U80C | 0.12
92 | A21U A45U U49A | 0.11
93 | A21U A47G A56G | 0.25
94 | A21U A47G G53A U60A U67A | 0.08
95 | A21U A47G U60A U80C | 0.16
96 | A21U A56C A65G | 0.06

Row | Variant | self-cleavage
97 | A21U A56G U58A | 0.14
98 | A21U A56G U66C U80C | 0.14
99 | A21U A56U U78C | 0.23
100 | A21U A64G U72C | 0.17
101 | A21U A64U A65G U80A | 0.03
102 | A21U A65G U80A | 0.36
103 | A21U C23A U25C U72A | 0.05
104 | A21U C23A U43A A45U A65G | 0.15
105 | A21U C23A U67A | 0.15
106 | A21U C23G A35G U78C | 0.27
107 | A21U C23U U31C U51A C62U | 0.11
108 | A21U C27A A47U U49C | 0.13
109 | A21U C27U A56U A57U U78A | 0.17
110 | A21U C29A U43C | 0.12
111 | A21U C29G A45U A57G A64G U69A | 0.09
112 | A21U C29U G33A C38A U54A U67C U76A | 0.04
113 | A21U C32U U41C U74G A75G | 0.03
114 | A21U C34U U72A | 0.08
115 | A21U C37A U78C | 0.4
116 | A21U C37U U43C | 0.37
117 | A21U C38A A45G U69C | 0.1
118 | A21U C38A A45U U51A G52A A75U U78C | 0.07
119 | A21U C38G U49C G73C | 0.06
120 | A21U C39A A56U U60A A65G U67G | 0.06

Row | Variant | self-cleavage
121 | A21U C39A U41A | 0.21
122 | A21U C39U U41C | 0.43
123 | A21U G22A U25C U58A | 0.11
124 | A21U G24A C27A G42A | 0.11
125 | A21U G24A U41A A64G U69A | 0.03
126 | A21U G30U U41C | 0.23
127 | A21U G33A A45G U72C | 0.21
128 | A21U G33A A56G | 0.13
129 | A21U G33A U66A | 0.06
130 | A21U G33C A64U C68U | 0.15
131 | A21U G36A C37U U51C A56U | 0.09
132 | A21U G36C U48A | 0.15
133 | A21U G36C U51G C81U | 0.1
134 | A21U G46U U69C | 0.23
135 | A21U G53C U72C | 0.13
136 | A21U G70A U76C | 0.1
137 | A21U U25A A35G U58C U80C | 0.25
138 | A21U U25A A45U G63A | 0.11
139 | A21U U25A G55A | 0.09
140 | A21U U25A U26C | 0.45
141 | A21U U25A U60A U80C | 0.57
142 | A21U U25C A35G C71U | 0.07
143 | A21U U25C A45G U49C U74C | 0.05
144 | A21U U25C A47G | 0.43

Row | Variant | self-cleavage
145 | A21U U25C A47G A65G G70A A75U | 0.03
146 | A21U U25C A57G U67C U80C | 0.13
147 | A21U U25C C32U U43G U76C | 0.17
148 | A21U U25C C44U U72C | 0.05
149 | A21U U25C G30A U41A | 0.08
150 | A21U U25C G46A U48C U49C G70A | 0.05
151 | A21U U25C U26C | 0.1
152 | A21U U25C U41A | 0.4
153 | A21U U25C U66C | 0.15
154 | A21U U25C U69C U78C | 0.15
155 | A21U U25C U72C | 0.15
156 | A21U U25C U72G | 0.07
157 | A21U U25G C27U A47G U49A A75G | 0.04
158 | A21U U25G U69C U80A | 0.04
159 | A21U U26A A28G U43C A64G | 0.14
160 | A21U U26A A47U U72A | 0.09
161 | A21U U26A G70A U74C | 0.07
162 | A21U U26A U41C C71G | 0.08
163 | A21U U26A U49C A57G U67C | 0.03
164 | A21U U26C A56G U78C | 0.16
165 | A21U U26C C39U A47U | 0.14
166 | A21U U26C C39U U54C C62U A75U | 0.12
167 | A21U U26C C81U | 0.13

Reference: the RNAGym collection of RNA variant scans (doi:10.1093/nar/gkz1192)
